Test results taken from PubChem BioAssay (NCI).
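A five-concentration, 48-hour dose response in 96-well plates underlies each endpoint, interpolated linearly between surrounding concentrations. The concentration for 50% growth inhibition is given as GI50. At the TGI there is no net growth.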

Test system: NCI-H322M lung
Experiment: growth of human tumour cells (NCI), 48 h

With `O=C(c1ccc(O)cc1)C1[C@H](c2ccccc2Br)[C@@H](c2ccccc2)NC12C(=O)Nc1ccccc12` (stereo partly drawn) the GI50 was 8.8 µM and the TGI was 17.2 µM.

For `C#C[C@]1(O)CC[C@H]2[C@@H]3CC=C4c5sc(-c6ccc(O)c(O)c6)nc5CC[C@]4(C)[C@H]3CC[C@@]21C`, the GI50 was 5.02 µM and the TGI was 80.8 µM.

For `N#Cc1c(-c2ccc(Br)cc2)nc2n[nH]c(-c3ccc(Br)cc3)c2c1-c1ccc(C(F)(F)F)cc1`, the GI50 was 5.62 µM and the TGI was 41 µM.

Work on `C=C(C)[C@@H]1CC[C@]2(C)[C@H](CC=C3[C@@H]4CC(C)(C)CC[C@]4(C(=O)N4CCOCC4)CC[C@]32C)[C@@]1(C)CCCN` yielded a GI50 of 1.45 µM and a TGI of 3.11 µM.
